Reference: patent US20210228731A1, “ANTIBODY DRUG CONJUGATES FOR ABLATING HEMATOPOIETIC STEM CELLS” (NOVARTIS AG, priority 2018, published 2021)
Numbering of substitutions follows the chain as printed.

Target: Human cKIT on human mobilized peripheral blood hematopoietic stem cells (human), P10721
Test: cell-based or functional assay

B1: Conjugate J9: Anti-cKIT Fab'1 conjugated to LP2 (Fab)
heavy: QVQLVQSGAEVKKPGSSVKVSCKASGGTFSSYAISWVRQAPGQGLEWMGVIFPAEGAPGYAQKFQGRVTITADESTSTAYMELSSLRSEDTAVYYCARGGYISDFDVWGQGTLVTVSSASTKGPSVFPLAPSSKSTSGGTAALGCLVKDYFPEPVTVSWNSGALTSGVHTFPAVLQSSGLYSLSSVVTVPSSSLGTQTYICNVNHKPSNTKVDKRVEPKSCDKTHTCPPCPAPELLG
light: DIQMTQSPSSLSASVGDRVTITCRASQSISNYLAWYQQKPGKAPKLLIYDASSLQSGVPSRFSGSGSGTDFTLTISSLQPEDFATYYCQQYYYESITFGQGTKVEIKRTVAAPSVFIFPPSDEQLKSGTASVVCLLNNFYPREAKVQWKVDNALQSGNSQESVTEQDSKDSTYSLSSTLTLSKADYEKHKVYACEVTHQGLSSPVTKSFNRGEC
modifications: here or on the partner: linker-payload LP2 on native cysteine; linker-payload LP2 on native cysteines (native cysteine conjugation), DAR 3.8 for the whole Fab'
  EC50, cell viability, Human CD34 + cells: 0.0036 µg/mL
  EC50, cell viability, Human CD90 + cells: 0.012 µg/mL
  EC50, cell viability, Human total nucleated cells: 0.0018 µg/mL

B2: Conjugate J10: Anti-cKIT Fab'2 conjugated to LP1 (Fab)
heavy: QVQLVQSGAEVKKPGSSVKVSCKASGGTFSSHALSWVRQAPGQGLEWMGGIIPSFGTADYAQKFQGRVTITADESTSTAYMELSSLRSEDTAVYYCARGLYDFDYWGQGTLVTVSSASTKGPSVFPLAPSSKSTSGGTAALGCLVKDYFPEPVTVSWNSGALTSGVHTFPAVLQSSGLYSLSSVVTVPSSSLGTQTYICNVNHKPSNTKVDKRVEPKSCDKTHTCPPCPAPELLG
light: B1 light with S28D, N31Q, Y32D, T85V, E94L, S95P, I96S
modifications: here or on the partner: linker-payload LP1 on native cysteine; linker-payload LP1 on native cysteines (native cysteine conjugation), DAR 3.6 for the whole Fab'
  EC50, cell viability, Human CD34 + cells: 0.057 µg/mL
  EC50, cell viability, Human CD90 + cells: 0.059 µg/mL
  EC50, cell viability, Human total nucleated cells: 0.035 µg/mL

B3: Conjugate J11: Anti-cKIT Fab'2 conjugated to LP2 (Fab)
heavy: B2 heavy
light: B1 light with S28D, N31Q, Y32D, T85V, E94L, S95P, I96S
modifications: here or on the partner: linker-payload LP2 on native cysteine; linker-payload LP2 on native cysteines (native cysteine conjugation), DAR 3.8 for the whole Fab'
  EC50, cell viability, Human CD34 + cells: 0.027 µg/mL
  EC50, cell viability, Human CD90 + cells: 0.041 µg/mL
  EC50, cell viability, Human total nucleated cells: 0.016 µg/mL

B4: Conjugate J15: Anti-cKIT Fab'1 conjugated to LP1 (Fab)
heavy: QVQLVQSGAEVKKPGSSVKVSCKASGGTFSSYAISWVRQAPGQGLEWMGVIFPAEGAPGYAQKFQGRVTITADESTSTAYMELSSLRSEDTAVYYCARGGYISDFDVWGQGTLVTVSSASTKGPSVFPLAPSSKSTSGGTAALGCLVKDYFPEPVTVSWNSGALTSGVHTFPAVLQSSGLYSLSSVVTVPSSSLGTQTYICNVNHKPSNTKVDKRVEPKSCDKTHTCPPCPAP
light: B1 light
modifications: here or on the partner: linker-payload LP1 on native cysteine; linker-payload LP1 on native cysteines (native cysteine conjugation), DAR 3.9 for the whole Fab'
  EC50, cell viability, Human CD34 + cells: 0.151 µg/mL
  EC50, cell viability, Human CD90 + cells: 0.229 µg/mL
  EC50, cell viability, Human total nucleated cells: 0.115 µg/mL

B5: Conjugate J4: Anti-cKIT Fab'1 conjugated to LP1 (Fab)
heavy: B4 heavy
light: B1 light
modifications: here or on the partner: linker-payload LP1 on native cysteine; linker-payload LP1 on native cysteines (native cysteine conjugation), DAR 3.8 for the whole Fab'
  EC50, cell viability, Human CD34 + cells: 0.025 µg/mL
  EC50, cell viability, Human CD90 + cells: 0.037 µg/mL

B6: Conjugate J16: Anti-cKIT Fab'1 conjugated to LP2 (Fab)
heavy: B4 heavy
light: B1 light
modifications: here or on the partner: linker-payload LP2 on native cysteine; linker-payload LP2 on native cysteines (native cysteine conjugation), DAR 3.9 for the whole Fab'
  EC50, cell viability, Human CD34 + cells: 0.043 µg/mL
  EC50, cell viability, Human CD90 + cells: 0.089 µg/mL
  EC50, cell viability, Human total nucleated cells: 0.029 µg/mL

B7: Conjugate J5: Anti-cKIT Fab'1 conjugated to LP2 (Fab)
heavy: B4 heavy
light: B1 light
modifications: here or on the partner: linker-payload LP2 on native cysteine; linker-payload LP2 on native cysteines (native cysteine conjugation), DAR 3.9 for the whole Fab'
  EC50, cell viability, Human CD34 + cells: 0.013 µg/mL
  EC50, cell viability, Human CD90 + cells: 0.039 µg/mL
  EC50, cell viability, Human total nucleated cells: 0.0088 µg/mL

B8: Conjugate J8: Anti-cKIT Fab'1 conjugated to LP1 (Fab)
heavy: B1 heavy
light: B1 light
modifications: here or on the partner: linker-payload LP1 on native cysteine; linker-payload LP1 on native cysteines (native cysteine conjugation), DAR 3.8 for the whole Fab'
  EC50, cell viability, Human CD34 + cells: 0.016 µg/mL
  EC50, cell viability, Human CD90 + cells: 0.031 µg/mL
  EC50, cell viability, Human total nucleated cells: 0.01 µg/mL
